Assay results taken from patent publication US20260216365A1, “ANTIBODY-DRUG CONJUGATES AGAINST THE RECEPTOR TYROSINE KINASE EPHA5” (Rutgers, The State University of New Jersey, priority 2021, published 2026).

Experiments:
PDX TM00096 (BR085F) = assay: PDX model TM00096 of triple negative breast cancer; assay type: in vivo, mouse
PDX TM00188 (LG0520F) = assay: PDX model TM00188 of lung squamous cell carcinoma; assay type: in vivo, mouse; conditions: here ADC2 = VH5Vk3-ThioBridge-VCP-(SN-38)2
H522-derived xenograft = H522-derived xenograft model of human lung cancer
H226 (EphA5-negative) = assay: Time-course of cell death (Green Object Count), EphA5-negative cells; assay type: cell-based, human
PDX TM00098 (BR1126F) = assay: PDX model TM00098 of triple negative breast cancer; conditions: here ADC2 = VH5Vk3-ThioBridge-VCP-(SN-38)2
PDX TM00219 (LG1049F) = assay: PDX model TM00219 of lung adenocarcinoma
A549-derived xenograft = A549-derived xenograft model of human lung cancer
[1] = system: H522, H460, A549 and H1299 cells; assay: Incucyte cytotoxicity, cell confluence over time; assay type: cell-based, human; conditions: EphA5 expression H522 (++++)>H460 (+++)>A549 (++)=H1299 (++)
PDX TM00226 (LG1179F) = assay: PDX model TM00226 of lung adenocarcinoma; assay type: in vivo, mouse
H460-derived xenograft = H460-derived xenograft model of human lung cancer; conditions: ADC 10 mg/kg i.v. every 5 days, 3 doses
[2] = system: H460 cells (EphA5-positive); assay: Time-course of cell death (Green Object Count), EphA5-positive cells; assay type: cell-based, human; conditions: dose- and time-dependent
[3] = system: triple-negative invasive ductal carcinoma breast tumor PDX; assay: Patient-derived xenograft (PDX) of triple-negative invasive ductal carcinoma of the breast (Example 4); assay type: in vivo, mouse; conditions: 5 doses of 10 mg/kg every 7 days; control tumors reached endpoints within 16 days
[4] = of 12 tumors (ADC1), of 10 tumors (ADC2), here ADC2 = VH4Vk3-ThioBridge-VCP-MMAE
[5] = ADC 10 mg/kg i.v. weekly, 3 doses
[6] = ADC 10 mg/kg i.v. weekly, 3 doses, VH5Vk3 ADC: first study, n=10
[7] = 5 weekly doses 10 mg/kg, here ADC2 = VH5Vk3-ThioBridge-VCP-(SN-38)2

B1: VH5Vk3-ThioBridge®-VCP-MMAE: VH5Vk3 antibody, ThioBridge disulfide rebridging, Val-Cit-PAB linker, MMAE payload, DAR 4; ADC1 in Examples 5-9 (conjugate)
heavy: EVQLVESGGGLVQPGGSLKLSCAASGFTFSTFGIHWVRQAPGKGLEWVAYISGASTTIYYADSVKGRFTISRDNSKNTLYLQMNSLRAEDTAVYYCARYGTSFPYGLDYWGQGTLVTVSSASTKGPSVFPLAPSSKSTSGGTAALGCLVKDYFPEPVTVSWNSGALTSGVHTFPAVLQSSGLYSLSSVVTVPSSSLGTQTYICNVNHKPSNTKVDKRV[letters of human IgG1 Fc left out]
light: DIVMTQSPDSLAVSLGERATINCKASQSVDYDGDSYMNWYQQKPGKAPKLLIYGASNLESGIPDRFSGSGSGTDFTLTISRLEPEDAAVYYCQQSNEDPFTFGQGTKLEIKRTVAAPSVFIFPPSDEQLKSGTASVVCLLNNFYPREAKVQWKVDNALQSGNSQESVTEQDSKDSTYSLSSTLTLSKADYEKHKVYACEVTHQGLSSPVTKSFNRGEC
- change in body weight before and after treatment (PDX TM00096 (BR085F); 10 mg/kg weekly, 5 doses (ADC1, ADC2) or 4 doses (ADC3, ADC4), here ADC2 = VH4Vk3-ThioBridge-VCP-MMAE): no significant changes in body weight
- tumor volume response (PDX TM00096 (BR085F); 5 weekly doses 10 mg/kg tail vein, here ADC1 = VH5Vk3-, ADC2 = VH4Vk3-ThioBridge-VCP-MMAE): full and sustained regression of tumors
- number of tumors regressed completely (PDX TM00096 (BR085F); [4]): 4
- number of tumors remaining at the end of the study (PDX TM00096 (BR085F); [4]): Eight
- tumor volume response (PDX TM00188 (LG0520F); 5 weekly doses 10 mg/kg tail vein, ADC1 n=16 tumors): complete and sustained regression of all tumors
- change in body weight before and after treatment (PDX TM00188 (LG0520F); 5 weekly doses 10 mg/kg): no significant changes in body weight
- weight of tumors at study termination (PDX TM00188 (LG0520F)): tumor weight could not be determined
- change in body weight, before first dose versus termination (H522-derived xenograft; [5]): no significant changes
- time for which regression was sustained (H522-derived xenograft; [6]): 60 days
- tumor response (H522-derived xenograft; [6]): full regression was observed for all tumors of group 3
- time for which regression was sustained (H522-derived xenograft; second study (FIG. 88), n=5): 50 days
- tumor response (H522-derived xenograft; second study (FIG. 88), n=5, ADC 10 mg/kg i.v. weekly, 3 doses): full regression in all tumors of the experimental group
- killing of EPHA5− cells (H226 (EphA5-negative)): but not EPHA5− cells
- tolerability (PDX TM00098 (BR1126F); 10 mg/Kg weekly for 5 doses): well tolerated
- tumor volume response (PDX TM00098 (BR1126F); 5 weekly doses 10 mg/kg tail vein, 50-day study): full and sustained regression of tumors
- change in body weight (PDX TM00098 (BR1126F); 5 weekly doses 10 mg/kg): no significant changes in body weight
- weight of tumors at study termination (PDX TM00098 (BR1126F)): completely regressed and tumor weight could not be determined
- tumor volume response (PDX TM00219 (LG1049F); 5 weekly doses 10 mg/kg tail vein, here ADC2 = VH5Vk3-ThioBridge-VCP-(SN-38)2): full and sustained regression of tumors
- change in body weight before and after treatment (PDX TM00219 (LG1049F); [7]): no significant changes in body weight
- number of tumors regressed completely (PDX TM00219 (LG1049F); of 11 tumors): 6
- number of tumors remaining at the end of the study (PDX TM00219 (LG1049F); of 11 tumors): Five
- change in body weight, before first dose versus termination (A549-derived xenograft; ADC 10 mg/kg i.v.): No significant differences in the body weights
- tumor response (A549-derived xenograft; [5]): full regression of all tumors
- number of tumors with full regression (A549-derived xenograft; ADC 10 mg/kg i.v. weekly, 3 doses, ADC group n=5): 5
- response of tumors progressing after the SN-38 ADC (A549-derived xenograft; MMAE ADC 10 mg/kg on days 20, 26 and 32 after three weekly doses of VH5Vk3-ThioBridge-(VCP-SN-38)2): tumor growth inhibition sustained from day 20-38
- ADC-induced cell death (decrease of cell confluence) [1]: increasing amounts of ADC induced cell death which is dependent on the levels of expression of the target EphA5
- tumor volume response (PDX TM00226 (LG1179F); 5 weekly doses 10 mg/kg tail vein, ADC1 n=8 tumors, here ADC2 = VH5Vk3-ThioBridge-VCP-(SN-38)2): sustained regression of tumors
- change in body weight before and after treatment (PDX TM00226 (LG1179F); [7]): no significant changes in body weight
- number of tumors regressed completely (PDX TM00226 (LG1179F); of 8 tumors): 1
- number of tumors remaining at the end of the study (PDX TM00226 (LG1179F); of 8 tumors): Seven
- change in body weight, before first dose versus termination (H460-derived xenograft): no significant changes in body weight
- number of tumors with partial regression (H460-derived xenograft; n=9): 8
- killing of EPHA5+ cells [2]: able to kill EPHA5+ cells
- tumor growth [3]: little measurable tumor growth
